Measured values taken from the supplement of paper PMC3334620.
The full ranking holds about 33,000 sequences; the median of “E-score (-0.5 to 0.5)” is about -0.043, and the highest 2% start at about 0.37. The list shows a part of the results.

Molecular target: T1, Upc2 (UniProt Q12151)
T1 sequence: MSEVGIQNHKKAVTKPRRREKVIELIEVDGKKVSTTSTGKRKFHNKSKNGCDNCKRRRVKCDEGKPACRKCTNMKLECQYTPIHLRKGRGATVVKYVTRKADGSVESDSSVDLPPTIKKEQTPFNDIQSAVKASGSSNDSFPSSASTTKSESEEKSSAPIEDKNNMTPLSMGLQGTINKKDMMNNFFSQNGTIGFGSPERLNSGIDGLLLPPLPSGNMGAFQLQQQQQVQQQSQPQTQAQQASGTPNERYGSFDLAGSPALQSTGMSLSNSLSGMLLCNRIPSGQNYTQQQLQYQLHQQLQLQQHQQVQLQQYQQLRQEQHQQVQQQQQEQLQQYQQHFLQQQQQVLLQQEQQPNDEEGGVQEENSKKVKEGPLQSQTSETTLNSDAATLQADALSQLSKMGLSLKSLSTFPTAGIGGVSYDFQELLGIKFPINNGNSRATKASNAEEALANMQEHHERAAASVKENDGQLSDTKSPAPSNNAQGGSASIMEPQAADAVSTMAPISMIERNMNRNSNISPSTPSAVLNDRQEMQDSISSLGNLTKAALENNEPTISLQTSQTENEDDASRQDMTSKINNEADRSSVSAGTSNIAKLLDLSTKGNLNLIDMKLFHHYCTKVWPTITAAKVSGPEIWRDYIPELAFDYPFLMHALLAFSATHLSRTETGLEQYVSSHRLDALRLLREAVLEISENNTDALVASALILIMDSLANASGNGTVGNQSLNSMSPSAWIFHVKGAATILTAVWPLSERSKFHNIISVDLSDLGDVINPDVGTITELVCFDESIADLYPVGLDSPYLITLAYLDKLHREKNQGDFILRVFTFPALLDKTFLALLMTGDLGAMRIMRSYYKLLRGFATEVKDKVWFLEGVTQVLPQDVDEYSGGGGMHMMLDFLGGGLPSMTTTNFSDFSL
Assay: PBM E-score (8-mer binding enrichment) (E-score (-0.5 to 0.5)); higher = stronger / more preferred TF binding; most listed sequences are background and not binding sites
Settings: protein concentration: 200 nM; construct: GST-full length
Outline: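 The E-score, a modified Wilcoxon-Mann-Whitney statistic, was computed by the Universal PBM Analysis Suite for every ungapped eight-base word pooled with its reverse complement. Scans behind it were normalised with masliner after bound GST-tagged yeast transcription factors were detected with fluorescent anti-GST. The proteins, at about 100-200 nM, had been applied to universal all-10-mer Agilent arrays made double-stranded by primer extension.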

Sequence	PBM E-score
CCCGGGGC	-0.0224
ATGTACAC	-0.0421
GAACCATC	0.0879
CACGCGGA	-0.0824
CCCTGACG	-0.32
ATGCTAAT	-0.00717
CATTAAAA	0.011
CGTGATGA	-0.0973
GAGCTTAC	0.0339
GGAGGCCC	-0.179
CGCCGGGC	-0.111
AAGTCGCT	0.0332
CGGCTCAA	-0.134
TCACCTCA	-0.197
TATTGTAA	-0.00777
ATTGGCTG	-0.24
GGATTCAC	-0.0907
AGGCCTCC	-0.19
GCTAACCA	-0.148
AGCCCTAG	-0.322
CTGACCAC	-0.084
GCCAAGAC	-0.154
ATTCGCCA	-0.123
CTTCGAGC	-0.09
AAAATCTC	0.0527

Sequence	PBM E-score
CCCAGGGG	-0.328
ACAAGACT	-0.00931
GGTAGCCA	0.0405
AGAGCAGG	-0.142
TATCGAGA	0.0859
CCCGCTCC	-0.0825
CAGGCACG	-0.189
AGATTGGC	0.0146
AAGGCCGC	-0.0622
CGGGGTTA	0.17
GGTTGCGA	0.0967
AAGTTGCG	0.0949
AATGTTGC	0.0599
ATAGCAAT	-0.00605
ACGTTCGA	0.0231
AAAATGTA	0.0315
ATGACCAG	-0.182
AGATGAAC	0.0276
CTTGATTA	-0.25
CTATATCA	-0.0561
GGTGGACA	-0.215
AAATTCGG	-0.025
ATAGAGTG	-0.00397
GCTAGAGA	0.0839
AAAATAGG	-0.0506

Sequence	PBM E-score
CCGGCGCC	-0.106
GAGATGAA	-0.0684
GAAAGACC	-0.204
CGACTCTC	0.179
ACGGTTCG	0.159
CTGTGTAA	-0.0366
TAGGGAAA	-0.105
AATCATAT	0.00493
CAGGATAC	0.035
CTTTCATA	0.0603
AAGCCTCC	-0.2
GTGACAAC	-0.102
CGCACGCG	0.0471
GAATGGGC	-0.0327
ACTAAAGG	-0.0401
ATTCACAA	-0.108
CCCCTTCC	-0.25
ATCGGTGG	-0.0649
ATCCGATG	0.0967
CAGAGCAC	-0.0415
GGGGGCAC	-0.231
GATCTGGC	-0.0503
CGAAGGCC	0.127
AGAGCGGG	-0.274
AGGGCCCA	-0.117

Sequence	PBM E-score
ACCCATCA	-0.0201
AACTGGCT	-0.196
GTCCCCTA	-0.281
CATACGAA	0.466
CTTCCCGC	-0.0738
AGTGAACT	-0.117
AATAAATC	-0.0576
CCTAATCC	-0.161
AAAAGGCG	0.111
GATAAGGC	0.00098
GAGTTGAA	0.0719
CTTCATTC	-0.06
ATATCTGG	-0.206
ACTACGAC	0.272
CTCCGCAG	-0.128
ATACGTGG	0.264
CGTAGAAG	0.268
GGTTTGAC	0.0773
TAAATCCA	0.092
CACCCTAC	0.0343
CTGGCGCC	-0.13
CGTGATCC	-0.24
CTGAGCTC	-0.175
CGGGGAGA	-0.235
CCCTAAAG	-0.18

Sequence	PBM E-score
GCATATAA	0.179
CTCGCTCA	0.314
CTGCCTTA	-0.212
ATCGGATA	0.223
CACATTGC	-0.104
CAAAAGAC	-0.0803
ACTATATG	0.155
TTAGTGAA	-0.0194
AGAATCGG	0.0146
CAAGGCCC	-0.134
GAGGATGC	-0.155
GATGCCCA	-0.0522
TACCAGGA	-0.0405
AACCTCAG	0.0132
AAGCAAGG	-0.0445
ATGTAGCA	-0.115
TAAAGTCA	0.0294
GGAAGCAC	-0.0722
AGGGGAAT	-0.226
CGACTCAC	0.0192
CATATCCC	-0.029
CTAGAGAA	-0.0312
CTTAGAGA	-0.0866
CGCAAAAG	-0.0214
TATTGCAA	0.127

Sequence	PBM E-score
CGTACCTA	0.376
AAACAACT	-0.205
CGGTCAGC	-0.00946
AAATTAGC	0.0443
CACCTCCC	-0.174
GTATATCA	0.316
GCCGAGCA	-0.092
AAAGAGGA	-0.308
AGAAGGGA	-0.403
GGAGGTTA	-0.0978
ACGGCCGC	0.193
GGAAGGGA	-0.298
CGAGTACC	0.171
AGGCGCAC	-0.119
CACTTCAA	-0.0335
AATGATAC	0.163
ATACTGTA	0.117
CATTTGCC	-0.258
GACGTCTA	-0.16
ACAACCGG	-0.0829
TTCTGAAA	-0.116
CTTTACCC	-0.00452
AGGGTGAA	-0.0793
CATATTCA	-0.0449
CGGCATGA	0.152

Sequence	PBM E-score
CACTGATC	-0.202
CGCCCTTA	-0.0749
CCTGAAAC	-0.00472
CTCTAGGC	-0.269
CCGGACGG	-0.22
GGAGACCA	-0.347
CTGCGTGC	-0.075
CCCTGCTC	-0.254
AGTCGTAT	0.467
CGACCCTA	0.0368
CTTAAATA	-0.0688
GGTGACCA	-0.176
GGCGGACA	-0.0948
ACTCCCCG	-0.0405
AATTGCCG	0.0801
GCCAGTTA	0.0528
ACCCATTA	0.102
GCGTATCC	0.2
CAAGTGTG	-0.243
AAGGGGCT	-0.148
GTGCTTGA	0.0959
CCCACGCG	-0.126
